This is an account of results in the supplement of paper PMC11417369.

Some of the results follow.

The assay deals with PfAP2-HC AP2 domain (GST-tagged). The experiment in a line: gcPBM binding intensity (ln(normalized median fluorescence intensity)); higher = stronger DNA binding. The method, boiled down:
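Alexa488 anti-GST antibody, scanned at 488 nm, detected GST-tagged P. falciparum DNA-binding domains that had been expressed in E. coli and incubated for 1 h on an Agilent 4 × 180k array. The array carried primer-extended double-stranded 36-bp intergenic genomic probes and negative controls. Binding intensity is the highest Masliner-normalised natural-log median intensity across replicate spots of either orientation of each probe.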
As for “TAATACTTTTAATCTACACACGCTGAGACATGCTTT [CACACA_site1484]”, the “gcPBM binding intensity (ln)” value is 9.76.

Turning to “TTATATAATCCTTTCAAACACACAAAATATAATTAA [CACACA_site1830]”, the “gcPBM binding intensity (ln)” value came out at 9.62.

With “ACATAAGACACAAATACACACAAAAATATGTAACAA [CACACA_site7836]”, the “gcPBM binding intensity (ln)” value is 10.1.

Turning to “TTTTATGAAAAGTATTGTACGTATAATTTATATGTA [XGTACX_site1639]”, the “gcPBM binding intensity (ln)” value was determined as 9.53.

For “TGCTATAATTTATATACACACAAATATATACGCATA [CACACA_site4096]”, the “gcPBM binding intensity (ln)” value came to 9.83.

In the case of TATGTATGTGCTTGTGCGCACCGATAATATAGCCAA, the “gcPBM binding intensity (ln)” value was determined as 9.68.

“TCTCATAGTAGACACACACACACACGCACATATATA [CACACA_site6916]”: the “gcPBM binding intensity (ln)” value came to 11.3.

With “ATAATAATTAACCTATGTACATAGGAAAGTCATAAA [XGTACX_site4387]”, the “gcPBM binding intensity (ln)” value is 9.83.

In the case of “AAAAAAAAAAAACACACACACACATACACATACATA [CACACA_site2858]”, the “gcPBM binding intensity (ln)” value came to 10.5.

With “GAAGAAAAATAAAAAGTGCAAAAAAAGTAAAAATTT [GTGCAC_site9897]”, the “gcPBM binding intensity (ln)” value was 9.79.

Consider “TATATAAATAGACACACACACACCTTATAATTACTA [CACACA_site7828]”, for which the “gcPBM binding intensity (ln)” value was 10.8.

For the sequence “TTGGAAAAAGTGAAATGTACATATATATTTATTATT [XGTACX_site6946]”, the “gcPBM binding intensity (ln)” value stood at 9.53.

On to AAAGGATTTATACTAGTGCAAAAATATAAAAATATA, for which the “gcPBM binding intensity (ln)” value is 9.72.

For “AATAATAAAGTGAACACACACATATAACATCTATAT [CACACA_site7868]”, the “gcPBM binding intensity (ln)” value came out at 10.1.

Turning to “GAAGTTTTTTAAAGATGTACTTTTTAAAAATAATCT [XGTACX_site263]”, the “gcPBM binding intensity (ln)” value was 9.35.

As to “TCCATATATGCCTTATGTACATATACCAAATTAACC [XGTACX_site6513]”, the “gcPBM binding intensity (ln)” value came out at 9.65.

Turning to “TTTGGCTAGTTAGGCCGTACATGTAAATAATATATA [XGTACX_site1138]”, the “gcPBM binding intensity (ln)” value was determined as 9.47.

With “TTCTTATAAATATACACACACAAAATATCTACAATG [CACACA_site6487]”, the “gcPBM binding intensity (ln)” value was 10.

Take “TGTGTAAGATCTTGGATGATGATAAGAATCTACTAG [CACACA_negctrl_site1167]”: the “gcPBM binding intensity (ln)” value is 9.47.

As for “TTATAAGATTTATGTACACACATATACTCACCTCTA [CACACA_site729]”, the “gcPBM binding intensity (ln)” value worked out at 9.92.

For the sequence “CCTTAAAATAAGATATGTACGCAAAGGAAAACAAAG [XGTACX_site6057]”, the “gcPBM binding intensity (ln)” value is 9.9.

Take “AATATAAATACTCCTACACACATATATATATATATA [CACACA_site3010]”: the “gcPBM binding intensity (ln)” value was found to be 10.2.

Take “GACACAAAAAAATAATAATAATAATAATAATAAATA [XGTACX_negctrl_site145]”: the “gcPBM binding intensity (ln)” value came to 9.75.

With “ACAAATACAAAAAAAGGTACACACATAATATATTTA [XGTACX_site5515]”, the “gcPBM binding intensity (ln)” value amounted to 10.1.

Turning to “TTTGTTTTTAATTTCGCACACACCTTGTGGAAAAAA [CACACA_site577]”, the “gcPBM binding intensity (ln)” value was found to be 9.88.

“AAATATTTTATACTTGCACACAAAATATATTAAAAT [CACACA_site8606]”: the “gcPBM binding intensity (ln)” value was 9.77.

Regarding “ATAATAAATAAAATAACACACATATATAAATATATA [CACACA_site170]”, the “gcPBM binding intensity (ln)” value came out at 9.87.

As for “ATTAATAAAAAATTTTAAAAAATAAATAAAATAAAA [TGCATGCA_negctrl_site113]”, the “gcPBM binding intensity (ln)” value is 9.36.

In the case of “ATTTTTATTCAGTTCACACACGCTTTAATATTATAT [CACACA_site3465]”, the “gcPBM binding intensity (ln)” value was determined as 10.

With “AAAATATTTTTATAATGTACATATAGTTGTATTTGT [XGTACX_site8724]”, the “gcPBM binding intensity (ln)” value was 9.65.

For the sequence “ATATATATTTAACAATGTACTTATTCAGAGAATAAT [XGTACX_site574]”, the “gcPBM binding intensity (ln)” value came out at 9.38.

Take “AAGTTGAAATAATGTGCACACATTTTTTTTTTTTTT [CACACA_site3368]”: the “gcPBM binding intensity (ln)” value amounted to 9.86.

As to “CCCTTAATATAAAGCACACATATATATAATATATAT [CACACA_site4439]”, the “gcPBM binding intensity (ln)” value was found to be 9.79.

For “TATCCTTATATTTGCACACACACACTAGAAAATGAA [CACACA_site4714]”, the “gcPBM binding intensity (ln)” value worked out at 10.3.

Take “AAAAAAAAAAAAAAAAAAAACGAAAAACATCAAAGA [TGCATGCA_negctrl_site78]”: the “gcPBM binding intensity (ln)” value turned out to be 9.51.

In the case of “ACTAAAAAATATATATGTACATAATAATATATTATT [XGTACX_site1260]”, the “gcPBM binding intensity (ln)” value was 9.68.

As to “ATTTATACTTATGTATGTACATATATACATATGTAT [XGTACX_site3979]”, the “gcPBM binding intensity (ln)” value came to 9.87.

In the case of ATAATAAAATAACTAGTGCATATTCAAAGGATTCAG, the “gcPBM binding intensity (ln)” value turned out to be 9.83.

On to “ATTATGTGTCCACATGTAAGCTATCTTACTTATATA [CACACA_negctrl_site1227]”, for which the “gcPBM binding intensity (ln)” value stood at 9.76.

Turning to “CATATTTGTGGACACACACACATATTTATATATATA [CACACA_site5887]”, the “gcPBM binding intensity (ln)” value was 10.4.

Take “ATAGTTACACAATGGTGTACAAGTCAATATATTTCT [XGTACX_site4614]”: the “gcPBM binding intensity (ln)” value came out at 9.67.

For “TACAAAAAAATAAAAAAAATTAAATAAATAAATATA [CACACA_negctrl_site45]”, the “gcPBM binding intensity (ln)” value was found to be 9.45.

“ACAATGTCATTTGCTAGTACGCATATTGGTTGTAAA [XGTACX_site8924]”: the “gcPBM binding intensity (ln)” value was 9.56.

Regarding “ATTTTTTTTTTTTTATGTACATATAGGTGCAAATCA [XGTACX_site6748]”, the “gcPBM binding intensity (ln)” value stood at 9.35.

“TAAAAAAAAAAAAAAAGTACACACATACATATAAAT [XGTACX_site3752]”: the “gcPBM binding intensity (ln)” value was 9.97.

As for “TATTTTTTTTTTTTTTTTTTTTTAAAACATATCAAT [CACACA_negctrl_site925]”, the “gcPBM binding intensity (ln)” value is 9.44.

Take “ATATATATATATAATTGTACATATAATATAATATTA [XGTACX_site5216]”: the “gcPBM binding intensity (ln)” value turned out to be 9.55.

With “ATATATATTATATATAGTACTTTTTTGCGCAAATAT [XGTACX_site6849]”, the “gcPBM binding intensity (ln)” value came to 9.49.

For “AATATGTTATAAATATGTTATAAATAATAAATAAAT [GTGCAC_negctrl_site135]”, the “gcPBM binding intensity (ln)” value was determined as 9.75.

On to “AACACATGCTTGGTCACACACGTATGCATATTTAAA [CACACA_site5206]”, for which the “gcPBM binding intensity (ln)” value worked out at 10.

Take “ATATTTATATATATCATACACACTAATATGTATATT [CACACA_site3409]”: the “gcPBM binding intensity (ln)” value amounted to 9.78.

Consider “TACCATATTTCTTCAAGTACGCATTATGTTAAAAAG [XGTACX_site345]”, for which the “gcPBM binding intensity (ln)” value stood at 9.42.

Turning to “TACATATATTTTTATACATGCATAACTTAGGACTTT [TGCATGCA_site113]”, the “gcPBM binding intensity (ln)” value turned out to be 9.57.

“TCCTTTTTGAAATGTTGTACTTTTTTTATCTTTCAT [XGTACX_site953]”: the “gcPBM binding intensity (ln)” value is 9.87.

Take “TAATTATATATATACACACACATACAGACAAATAAA [CACACA_site3412]”: the “gcPBM binding intensity (ln)” value was 10.6.

Take “GAAATTTGTTATTGCACACAAATTTTTCTTTTTTTA [CACACA_site2339]”: the “gcPBM binding intensity (ln)” value is 9.8.

On to “GCAATTTTTTTTAAGAGTACTAATATATTATAGTGG [XGTACX_site7316]”, for which the “gcPBM binding intensity (ln)” value is 9.41.
